Out of some 44,000 compounds screened, about 340 (0.77%) were called active. About 5% were inconclusive and are not listed. Calls come from the whole dose curve; as a rule, active = well fitted inhibition curve with a large enough effect; inconclusive = small, poorly fitted or top-dose-only effect; inactive = flat fitted curve, though single readings scatter. This is one part of the list.
Experiment: Acumen qHTS Assay for Inhibitors of the mTORC1 Signaling Pathway in MEF (Tsc2-/-, p53-/-) Cells: Sytravon; note: nearly all actives have a fitted effect of over 50% in size;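 for activity change, negative = inhibition: plate controls were DMSO for no effect and rapamycin for full effect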
Settings: phospho-rpS6 immunofluorescence/PI, 24 h; series mostly up to 38.3 µM; activity change, negative = inhibition: at the top concentration
Summary of the method: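 Plate MEFs (Tsc2-/-, p53-/-, empty vector) in DMEM/10% FBS; after 24 h add compound, incubate 24 h at 37 degree Celsius; fix in PFA/TX-100, block, stain phospho-rpS6 and 10 uM PI; scan at 488 nm; report % positive cells.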
Potency is the fitted concentration of half-maximal effect.

Row | SMILES | activity change, negative = inhibition | Potency
1 | CCN(C(=O)COc1cc(=O)n(C)c2ccccc12)c1cccc(C(F)(F)F)c1 | inactive: 8.03% | 
2 | CCOc1ccc(C(=O)Nc2ccc(-c3nc4cc(CC)ccc4o3)cc2)cc1 | inactive: 2.15% | 
3 | CC(NC(=O)CCn1c(=O)c2cccn2c2ccc(F)cc21)c1ccccc1 (stereo not given) | inactive: -20.7% | 
4 | O=C(c1cc2c(=O)[nH]c3ccccc3c2s1)N1CCN(c2ccc(F)cc2)CC1 | inactive: -7.18% | 
5 | COc1ccccc1NC(=O)Cn1c(=O)n(Cc2ccccc2)c(=O)c2ccccc21 | inactive: -10.7% | 
6 | COc1ccc(NC(=O)C(=O)NCCc2csc(-c3ccc(Cl)cc3)n2)cc1 | inactive: -2.45% | 
7 | COc1cccc(NC(=O)c2oc3ccccc3c2NC(=O)C23CC4CC(CC(C4)C2)C3)c1 | inactive: 0.0996% | 
8 | COc1ccc(CN2COc3ccc4c(C)cc(=O)oc4c3C2)cc1 | inactive: -6.14% | 
9 | COc1cccc2c1Oc1nc(-c3ccccc3)nc(SCC(=O)N3CCCCC3)c1C2 | inactive: -0.96% | 
10 | O=C(CCn1c(=O)c2cccn2c2ccc(F)cc21)NCCc1ccccc1Cl | inactive: -0.549% | 
11 | COC(=O)c1ccc(NC(=O)Nc2nnc(N(C)C3CCCCC3)s2)cc1 | inactive: 1.97% | 
12 | CCCOc1ccc(Nc2nc(SC)ncc2C(=O)OCC)cc1 | inactive: -10.1% | 
13 | Cc1coc2c(C)c3oc(=O)c(CC(=O)N4CCCCC4)c(C)c3cc12 | inactive: -1.76% | 
14 | Cc1cc(C)cc(-n2c(SCC(=O)Nc3nnc(C)s3)nc3c([nH]c4ccccc43)c2=O)c1 | inactive: 0.4% | 
15 | COC(=O)c1ccc(NC(=O)Cc2coc3cc(C)ccc23)cc1 | inactive: -6.24% | 
16 | COc1ccc(-c2nc3nc(C)cc(Nc4ccc(C(C)=O)cc4)n3n2)cc1 | inactive: -2.43% | 
17 | COc1ccc(Cn2ccnc2SCC(=O)NCc2ccccc2)cc1 | inactive: -8.22% | 
18 | CCC1CCCCN1C(=O)c1nn(-c2ccc(C)cc2)c(=O)c2c1c1ccccc1n2C (stereo not given) | inactive: 1.15% | 
19 | CCOc1ccc(CCNC(=O)c2cnc3sc(N4CCOCC4)nn3c2=O)cc1 | inactive: 2.07% | 
20 | CCOc1ccc(C2C(=O)N(C3CCCCCC3)CC(=O)N2CCc2ccccc2)cc1OC (stereo not given) | inactive: 7.74% | 
21 | COc1ccccc1-c1ccnc2[nH]n(-c3ccccc3)c(=O)c12 | inactive: -3.68% | 
22 | CCOc1ccc(C(=O)Nc2ccc(S(=O)(=O)N3CCCCC3c3cccnc3)cc2)cc1 (stereo not given) | inactive: -14.7% | 
23 | Cc1cccc(N2CCN(c3nc4ccccc4c(=O)n3-c3ccc(Cl)cc3)CC2)c1C | inactive: -2.22% | 
24 | Cc1ccc(C)c(S(=O)(=O)NCC(c2ccco2)S(=O)(=O)c2ccc(F)cc2)c1 (stereo not given) |  | active: 7.36 µM

Row | SMILES | activity change, negative = inhibition | Potency
25 | Cc1ccc(N2CCN(C(=O)c3ccc4c(Cl)c5c(nc4c3)CCCC5)CC2)c(C)c1 | inactive: -11.1% | 
26 | Cc1noc(C)c1S(=O)(=O)N(CC(=O)NCc1ccccc1Cl)c1ccc(C(C)C)cc1 | inactive: -32.8% | 
27 | O=C(Nc1ccc(F)cc1F)c1c2c(nc3ccccc13)C(=O)N(C1CCCCC1)C2 | inactive: -10.3% | 
28 | O=C(NCc1cccs1)C1CCN(C(=O)N2CCOc3ccccc32)CC1 | inactive: -0.203% | 
29 | O=C(Nc1c(-c2ccccc2)nc2ccccn12)c1ccc(Br)cc1 | inactive: 7.03% | 
30 | CCOC(=O)c1cc(OC(=O)c2ccc(Cl)cc2)n(-c2ccccc2)n1 | inactive: -5.04% | 
31 | Cc1ccc(N(CC(=O)N2CCN(c3ccc(Cl)cc3)CC2)S(=O)(=O)c2c(C)noc2C)cc1 | inactive: 1.52% | 
32 | COc1ccc(C2C(=O)N(C3CCCCC3)CC(=O)N2Cc2ccccc2Cl)cc1OC (stereo not given) | inactive: -8.94% | 
33 | COc1ccc(CN2COc3ccc4c(-c5ccc(OC)cc5)cc(=O)oc4c3C2)cc1 | inactive: -1.27% | 
34 | CCc1ccc(-n2nc(C)c3c(C(=O)NCCc4ccc(OC)c(OC)c4)cc(C)nc32)cc1 | inactive: 4.62% | 
35 | COc1ccc(CNC(=O)Cn2ncn3nc(-c4cccs4)cc3c2=O)cc1 | inactive: 3.49% | 
36 | Cc1ccc(C)c(N2CCN(CCCNC(=O)Cn3ncc4c([nH]c5ccccc54)c3=O)CC2)c1 | inactive: -12.7% | 
37 | COc1ccc(N2CCN(S(=O)(=O)CCNC(=O)c3ccc(C(F)(F)F)cc3)CC2)cc1 | inactive: 0.011% | 
38 | CCCCCn1c(=O)[nH]c2cc(C(=O)NCc3ccc(OC)cc3)ccc2c1=O | inactive: -6.42% | 
39 | CCOC(=O)c1ccc(NC(=O)CCS(=O)(=O)c2ccc3c(c2)oc(=O)n3C)cc1 | inactive: 7.05% | 
40 | COc1ccccc1N(CC(=O)Nc1ccccc1F)S(C)(=O)=O | inactive: -9.52% | 
41 | CCCCN(CCCC)CCNC(=O)CN1C(=O)CSc2ccc(S(=O)(=O)N3CCCCC3)cc21 | inactive: -0.856% | 
42 | Cc1cccc(CN2C(=O)CC(c3ccc(Cl)cc3)c3c(C)nn(-c4nc(C)cc(C)n4)c32)c1 (stereo not given) | inactive: -3.5% | 
43 | COc1ccc(C2NC(=O)c3c(sc4c3CCN(C)C4)N2)cc1O (stereo not given) | inactive: 1.46% | 
44 | CCCNc1nc(NCc2ccccc2OC)c2cnn(C)c2n1 | inactive: 0% | 
45 | CCN(CCCNC(=O)c1cc2c(=O)[nH]c3ccc(C)cc3c2s1)c1ccc(C)cc1 | inactive: 1.3% | 
46 | CCc1ccc(NC(=O)C(CC)n2nnc(C(=O)OC)c2C(=O)OC)cc1 (stereo not given) | inactive: 7.76% | 
47 | Cc1ccc(Cl)cc1N1CCN(S(=O)(=O)c2ccc3[nH]c4c(c3c2)CCCC4)CC1 | inactive: -1.96% | 
48 | COc1ccccc1NC(=O)CN1C(=O)c2cccc3cccc1c23 | inactive: -0.811% | 

Row | SMILES | activity change, negative = inhibition | Potency
49 | Cc1cccc(N2CCN(C(=O)C3CCN(S(=O)(=O)c4cn(C)cn4)CC3)CC2)c1C | inactive: 2.81% | 
50 | Cc1ccc(Cl)cc1Nc1nn2c(=O)c3ccc(C(=O)NCc4cccs4)cc3nc2s1 | inactive: -1.19% | 
51 | COc1ccccc1NC(=O)C1CCN(S(=O)(=O)c2ccc3c(c2)oc(=O)n3C)CC1 | inactive: 4.1% | 
52 | CCCN1C(=O)c2ccccc2CC1(C)C(=O)NC1CCCCC1 (stereo not given) | inactive: 0.413% | 
53 | Cc1ccc(NC(=O)N2CCN(c3nnc(C)c4c(C)n(-c5ccccc5)nc34)CC2)cc1Cl | inactive: -8.99% | 
54 | CCC(CO)Nc1ncnc2c1cnn2-c1ccc(C)cc1 (stereo not given) | inactive: 9.68% | 
55 | CCOc1ccccc1CNC(=O)c1cnc2sc(N3CCCC3)nn2c1=O | inactive: 4.27% | 
56 | CCOCCCn1c(SCC(=O)Nc2cccc(OC)c2)nc2ccccc2c1=O | inactive: 4.21% | 
57 | O=C(NCc1ccc2c(c1)OCO2)c1ccc2c(c1)N(Cc1ccc(F)cc1)C(=O)c1ccccc1S2=O (stereo not given) | inactive: -1.05% | 
58 | Cc1ccc2nc(N(Cc3cccnc3)C(=O)c3ccc4c(c3)OCCO4)sc2c1 | inactive: 2.86% | 
59 | CCN(c1ccc(Cl)cc1)S(=O)(=O)c1nnc(NC(=O)C2CCCCC2)s1 | inactive: -0.6% | 
60 | CCOCCc1nn2c(=O)cc(COC(=O)c3cccs3)nc2s1 | inactive: -2.58% | 
61 | Cc1cc(C)cc(-n2c(SCC(=O)NCC3CCCO3)nc3c([nH]c4ccccc43)c2=O)c1 (stereo not given) | inactive: -5.65% | 
62 | COc1ccc2c(c1)-c1nc(NC(=O)c3ccc(C)cc3)sc1CC2 | inactive: -19.9% | 
63 | CCCC(=O)C1=C(c2ccc(C)c(C)c2)N(C(=O)CCC)n2c(CC)nnc2S1 | inactive: -2.09% | 
64 | CC1CCN(C(=O)c2cc(-c3cccc(Cl)c3)on2)CC1 | inactive: -2.16% | 
65 | COc1ccc(-c2noc(-c3ccc(NCCc4ccccc4)c([N+](=O)[O-])c3)n2)cc1OC | inactive: 2.94% | 
66 | O=C(Cn1ncc2c3ccccc3n(Cc3ccccc3)c2c1=O)Nc1ccccc1C(F)(F)F | inactive: -4.37% | 
67 | COc1ccc(OC)c(CNC(=O)CCCn2nc(C)c3c(C)n(-c4ccc(C)cc4)nc3c2=O)c1 | inactive: 0.205% | 
68 | CC(C)c1ccc(NS(=O)(=O)c2ccc3[nH]cc(C(=O)N4CCCC4)c(=O)c3c2)cc1 | inactive: -0.0537% | 
69 | CCn1ccc2cc(S(=O)(=O)N3CCCN(C(=O)Nc4cc(Cl)ccc4C)CC3)ccc21 | inactive: -2.96% | 
70 | CCOc1ccc(NC(=O)Nc2ccc3snnc3c2)cc1 | inactive: -4.11% | 
71 | COc1cccc(CNC(=O)Cc2c(C)c3c(cc(C)c4c(C)coc43)oc2=O)c1 | inactive: 1.95% | 
72 | Cn1ccc2c(OCC(=O)NCc3ccccc3Cl)cccc2c1=O | inactive: -5.28% | 

Row | SMILES | activity change, negative = inhibition | Potency
73 | CC(=O)N1CCC2(CC1)OC(=O)C(C)=C2C(=O)NCc1ccc(Cl)cc1 | inactive: 0.212% | 
74 | CCc1ccc(CNC(=O)c2ccc3nc(C(C)C)oc3c2)cc1 | inactive: -1.5% | 
75 | Cc1nn(-c2nc(-c3ccc(F)cc3)cc(C(F)(F)F)n2)c(C)c1Cl | inactive: -4.76% | 
76 | COc1ccc(OC(C)c2nc3ccccc3[nH]2)cc1 (stereo not given) | inactive: -13% | 
77 | O=C(Nc1ccc2oc(-c3cccnc3)nc2c1)c1ccc(-c2ccccc2)o1 | inactive: -17.4% | 
78 | COC(=O)c1ccc(Cl)cc1NC(=O)N(C)CCc1c(C)nn(C)c1C | inactive: 14.4% | 
79 | CCOc1ccc(NC(=O)C(=O)NCCc2csc3nc(-c4ccccc4F)nn23)cc1 | inactive: -13.8% | 
80 | Cc1ccc(CN2CCN(C3CCN(S(=O)(=O)c4ccc(C)cc4)CC3)C(=O)C2=O)cc1 | inactive: -7.92% | 
81 | COc1cc(NC(=O)C(CC(C)C)NS(=O)(=O)c2ccc3c(c2)oc(=O)n3C)c(C(=O)O)cc1OC (stereo not given) | inactive: -6.92% | 
82 | CCOC(=O)c1ccc(NC(=O)c2csc3c2CCCCC3)cc1 | inactive: 1.73% | 
83 | CCOc1ccc(NC(=O)Cn2cc(C(=O)c3ccc(C)c(C)c3)c(=O)c3cc(OC)c(OC)cc32)cc1 | inactive: -8.23% | 
84 | COc1ccc(CCn2c3c(c(=O)[nH]c2=O)C(NC(=O)c2ccccc2OC)(C(F)(F)F)C(=O)N3)cc1OC (stereo not given) | inactive: -0.477% | 
85 | COc1cc(C(=O)Nc2ccc(NC(=O)c3ccc(Br)cc3)cc2)cc(OC)c1OC | inactive: -2.59% | 
86 | CCC1CCCCN1C(=O)CSc1nc2c([nH]c3ccccc32)c(=O)n1-c1cccc(OC)c1 (stereo not given) | inactive: -8.87% | 
87 | Cc1ccc(-n2ccnc(NCCc3ccc(S(N)(=O)=O)cc3)c2=O)cc1C | inactive: 0% | 
88 | Cc1oc(-c2cccc(Cl)c2)nc1CSc1nc2ncccc2[nH]1 | inactive: 1.3% | 
89 | O=C(COc1ccccc1Cl)Nc1ccc(Cl)c(-c2nc3ccccc3o2)c1 | inactive: 1.55% | 
90 | O=C(O)c1ccc2nc(-c3cc4cc(F)ccc4oc3=O)[nH]c2c1 | inactive: -0.484% | 
91 | Cc1cccc(N2CCN(C(=O)c3cc4c(=O)n(C)c5ccccc5c4s3)CC2)c1C | inactive: -2.4% | 
92 | COc1ccccc1N1CCN(C(=O)c2cn(C)c3ccc(S(=O)(=O)N(C)C4CCCCC4)cc3c2=O)CC1 | inactive: 1.26% | 
93 | CCOc1ccc(NC(=O)c2cnn(-c3ccc(C)c(C)c3)c2C2CCN(C(=O)OC(C)(C)C)CC2)cc1 | inactive: 0.869% | 
94 | CCOc1ccc(Nc2nc3c(S(=O)(=O)c4cccc(Cl)c4)nnn3c3ccsc23)cc1 | inactive: -14.4% | 
95 | CC1=C(C(=O)Nc2ccccc2)C(c2ccc(C(=O)O)cc2)n2ncnc2N1 (stereo not given) | inactive: -6.81% | 

Reference: PubChem BioAssay AID493208 (National Center for Advancing Translational Sciences (NCATS), 2011)
